Some of the results follow.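 How the source made its calls: active = permutation test q below 0.05 after Benjamini-Hochberg correction; inactive = q of 0.05 or more.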
Legend:
A549 = assay: mean average precision of replicate retrieval against DMSO controls (Cell Painting phenotypic activity) (fraction (0-1)); higher = stronger, more reproducible morphological phenotype distinct from DMSO; extreme values may be limits of the assay; details: 5 µM
U2OS = assay: as above; details: 5 µM
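Further: cosine similarity of well-level aggregated Cell Painting profiles ranks each compound's replicate wells against DMSO wells, four replicate plates, significance from 100,000 rank shuffles.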

Compound	mean average precision (A549; 24 h)	mean average precision (A549; 48 h)	mean average precision (U2OS; 24 h)	mean average precision (U2OS; 48 h)
CCC[C@H](Nc1nc(-c2ccc(NC(=O)NCC)c(OC)c2)ncc1C)c1cccnc1	active: 0.959	active: 1	active: 1	active: 0.913
Cc1ccc(NC2=CC(=O)c3sc(C)nc3C2=O)cc1	active: 1	active: 1	active: 1	active: 1
CCCc1cc(C)[nH]c(=O)c1CNC(=O)c1cc(-c2ccc(N3CCN(C(C)C)CC3)nc2)cc2c1cnn2C(C)C	active: 1	active: 1	active: 1	active: 1
O=C1NC(=O)c2cc(Nc3ccc(F)cc3)c(Nc3ccc(F)cc3)cc21	inactive: 0.259	active: 0.73	inactive: 0.363	active: 0.495
Nc1ccn([C@H]2C[C@H](O)[C@@H](CO)O2)c(=O)n1	inactive: 0.246	active: 0.592	inactive: 0.12	inactive: 0.0773
O=C(O)/C=C/c1ccc(Cn2ccnc2)cc1	inactive: 0.133	active: 0.365	active: 0.348	inactive: 0.289
CCOC(=O)C(C)=O	inactive: 0.152	active: 0.615	inactive: 0.208	inactive: 0.102
COc1ccc(OC)c2c(=S)c3ccccc3[nH]c12	active: 0.691	active: 0.656	active: 0.626	active: 0.495
c1ccc(C(O[C@@H]2CCCN(CCc3ccc4c(c3)OCO4)C2)c2ccccc2)cc1	inactive: 0.22	active: 0.591	inactive: 0.236	inactive: 0.273
CC(=O)Oc1cccc2c1C(=O)c1c(OC(C)=O)cc(C(=O)O)cc1C2=O	inactive: 0.156	active: 0.604	inactive: 0.0967	inactive: 0.146
O=C1CC[C@@H](C(=O)O)N1	active: 0.489	active: 0.529	active: 0.603	active: 0.493
C(#Cc1nc2ncccc2nc1OCCN1CCCC1)c1ccccc1	active: 1	active: 1	active: 1	active: 1
COc1ccccc1S(=O)(=O)Nc1ccc2c(c1)CN(C)C(=O)N2	active: 0.84	active: 1	inactive: 0.298	active: 0.521
Cc1cn[nH]c1	inactive: 0.151	inactive: 0.215	active: 0.362	inactive: 0.195
C[C@@H]1CN(CC(=O)Nc2ccc3c(c2)Cc2cccc(-c4cc(=O)cc(N5CCOCC5)o4)c2S3)C[C@H](C)O1	active: 1	active: 1	active: 0.536	active: 0.819
COc1ccc(C2Sc3ccccc3N(CCN(C)C)C(=O)C2OC(C)=O)cc1 (stereo unspecified)	active: 0.339	active: 1	active: 0.503	inactive: 0.0731
COC1(C2=NCCN2)COc2ccccc2O1 (stereo unspecified)	inactive: 0.14	active: 0.89	active: 0.408	inactive: 0.147
O=C(CCNNC(=O)c1ccncc1)NCc1ccccc1	active: 0.33	active: 0.452	inactive: 0.251	inactive: 0.146
CC(OC(=O)NCC1(CC(=O)O)CCCCC1)OC(=O)C(C)C (stereo unspecified)	active: 0.453	active: 0.918	active: 0.861	active: 0.568
Nc1nc(F)nc2c1ncn2[C@@H]1O[C@H](CO)[C@@H](O)[C@@H]1O	active: 1	active: 1	active: 1	active: 1
CN1C(=O)N(c2cc(Cl)cc(Cl)c2)C(=O)[C@]12CN(Cc1cc(C(=O)O)cs1)C[C@H]2c1ccc(C#N)cc1	active: 0.347	active: 0.488	inactive: 0.256	inactive: 0.154
COc1cc2ncnc(Sc3nnc(C)s3)c2cc1OC	active: 1	active: 1	active: 0.868	active: 1
O=C(NNC(=O)c1ccc(CNS(=O)(=O)c2ccc(F)c(Cl)c2)cc1)c1ccccc1	inactive: 0.265	active: 0.575	active: 0.588	active: 0.422
Cc1ccc(Cl)c(Nc2ccccc2C(=O)O)c1Cl	inactive: 0.218	active: 0.744	inactive: 0.193	inactive: 0.238
Cc1csc(-c2nnc(Nc3ccc(Oc4ncccc4-c4ccnc(N)n4)cc3)c3ccccc23)c1	active: 1	active: 1	active: 1	active: 1
Cn1c(=O)c2c(ncn2CC(O)CO)n(C)c1=O (stereo unspecified)	active: 0.324	inactive: 0.279	inactive: 0.14	inactive: 0.127
CCCCC(C)(O)C/C=C/[C@H]1[C@H](O)CC(=O)[C@@H]1CCCCCCC(=O)OC (stereo partly specified)	active: 0.703	active: 1	active: 0.714	active: 0.979

Compound	mean average precision (A549; 24 h)	mean average precision (A549; 48 h)	mean average precision (U2OS; 24 h)	mean average precision (U2OS; 48 h)
CCOC(=O)Nc1ccc(NCc2ccc(F)cc2)nc1N	active: 0.606	active: 1	active: 0.826	active: 0.637
NC(=NCc1ccccc1)NC(=O)c1nc(Cl)c(N)nc1N	active: 0.399	active: 0.764	active: 0.89	active: 0.781
NC(=O)Nc1cc(-c2cccc(F)c2)sc1C(=O)N[C@H]1CCCNC1	active: 1	active: 1	active: 1	active: 1
C=CC(=O)Nc1cccc(Nc2nc(Nc3ccc(OCCOC)cc3)ncc2F)c1	active: 1	active: 1	active: 1	active: 1
Cc1cnc(-c2ccccc2C(C)C)nc1NCc1ccc(-n2ccnn2)cc1	active: 0.666	active: 1	active: 0.807	active: 0.569
COC(=O)N(C)c1c(N)nc(-c2nn(Cc3ccccc3F)c3ncccc23)nc1N	active: 0.435	active: 0.422	inactive: 0.161	inactive: 0.237
O=c1cc(-c2cccc3c2Sc2ccccc2S3)oc(N2CCOCC2)c1	active: 1	active: 1	active: 0.958	active: 0.896
CC1(C)O[C@@H]2C[C@H]3[C@@H]4CCC5=CC(=O)C=C[C@]5(C)[C@H]4[C@@H](O)C[C@]3(C)[C@]2(C(=O)CO)O1	active: 1	active: 1	active: 1	active: 0.979
Cc1cc(C)cc(NC(=O)Cc2ccc(OC(C)(C)C(=O)O)cc2)c1	active: 0.568	active: 0.861	inactive: 0.225	inactive: 0.0703
CC(C)c1ccc2oc3nc(N)c(C(=O)O)cc3c(=O)c2c1	inactive: 0.117	active: 0.33	active: 0.48	inactive: 0.223
Cc1nc2c([nH]1)CCN(C(=O)c1ccc(NC(=O)c3ccccc3-c3ccccc3)cc1)c1ccccc1-2	active: 1	active: 1	active: 1	active: 0.869
COc1cc2ncnc(Nc3ccc(Oc4ccccc4)cc3)c2cc1OC	active: 1	active: 1	active: 1	active: 0.834
C[C@@H]1CC2C3CCC4=CC(=O)C=C[C@]4(C)[C@@]3(F)[C@@H](O)C[C@]2(C)[C@@]1(O)C(=O)CO (stereo partly specified)	active: 0.697	active: 1	active: 0.667	inactive: 0.28
OC[C@H]1O[C@@H](n2cnc3c2NC=NC[C@H]3O)C[C@@H]1O	active: 0.573	active: 0.652	active: 0.933	active: 0.813
OC(CCN1CCCCC1)(c1ccccc1)C1CCCCC1 (stereo unspecified)	active: 0.39	active: 0.681	inactive: 0.114	inactive: 0.0897
COCCOC(=O)C1=C(C)NC(C)=C(C(=O)OC(C)C)C1c1cccc([N+](=O)[O-])c1 (stereo unspecified)	active: 0.367	active: 0.542	inactive: 0.206	active: 0.782
CCCCCCCC/C=C\CCCCCCCC(=O)OC(CO)CO	active: 0.463	active: 0.498	inactive: 0.307	active: 0.333
CN[C@H]1C(=O)N[C@@H]2Cc3ccc(cc3)Oc3cc4cc(c3O[C@@H]3O[C@H](C(=O)O)[C@@H](O)[C@H](O)[C@H]3NC(=O)CCCCCCCCC(C)C)Oc3ccc(cc3Cl)[C@@H](O)[C@@H]3NC(=O)[C@H](NC(=O)[C@@H]4NC(=O)[C@@H](NC2=O)c2cc(cc(O)c2Cl)Oc2cc1ccc2O)c1ccc(O)c(c1)-c1c(O[C@H]2O[C@H](CO)[C@@H](O)[C@H](O)[C@@H]2O)cc(O)cc1[C@@H](C(=O)NCCCN(C)C)NC3=O	inactive: 0.153	inactive: 0.25	inactive: 0.306	inactive: 0.0937
NS(=O)(=O)c1ccc(C(=O)O)cc1	active: 0.939	active: 1	active: 0.831	active: 0.456
CC1(C)C(=O)NC2=C1C(=O)C(=O)c1ccccc12	active: 0.343	active: 1	active: 1	active: 1
CN[C@@H]1C[C@H]2O[C@@](C)([C@@H]1OC)n1c3ccccc3c3c4c(c5c6ccccc6n2c5c31)C(=O)N[C@H]4O	active: 1	active: 1	active: 1	active: 1
O=C1C(Cl)=C(NCCN2CCOCC2)C(=O)c2ncccc21	active: 0.534	active: 1	active: 1	active: 1
CCN1/C(=C/C(C)=O)Sc2ccc(OC)cc21	active: 1	active: 1	active: 0.402	inactive: 0.205
CC(=O)N[C@@H](CS)C(=O)O	active: 0.439	active: 0.619	active: 0.561	inactive: 0.345
CCN[C@H]1CN(CCCOC)S(=O)(=O)c2sc(S(N)(=O)=O)cc21	inactive: 0.278	active: 0.616	active: 0.42	inactive: 0.268
CC(C)C[C@H](NC(=O)[C@@H](NC(=O)c1cccc(-c2ccccc2)n1)[C@@H](C)O)B(O)O	active: 1	active: 1	active: 1	active: 1
CC(C)c1cc(-c2n[nH]c(=O)n2-c2ccc3c(ccn3C)c2)c(O)cc1O	active: 1	active: 1	active: 1	active: 1
